# Reference: the supplement of paper PMC11383711
# Some of the results follow. Binding of human antibodies (heavy:light variable regions, tested as scFv in one mRNA-display pool) to influenza hemagglutinin, with or without the stem antibody CR9114 bound first. Score = (mean enrichment − median) / interquartile range of that screen; higher = more enriched, 0 = typical non-binder. Active = above the paper's cut-off per screen: stems 28; unblocked H1 Solomon Islands 5, H1 Michigan 3, H3 5, H5 19, H7 2.85, both B 5; blocked 9, 7, H5 10, H7 10, B Phuket 10, B Lee 11.5. Scores are scaled within each screen and are no affinities; replicates correlate at about 0.6 to 0.9, and antibodies rare in the pool are noisier.
# B1: 051-09-4C02 (protein)
# chain 1: QVQLVESGGGLVTPGGSLRLSCVASGFSFGDFYMGWIRQAPGKGLQWLSHISPSGGTIYYSDSVKGRFSISRDNAKNSVHLEMNSLRADDTAVYYCARAGVAVLTFDNRGWRFFDPWGQGTLVTVSS
# chain 2: EIVLTQSPATLSLSPGERATLSCRASQSINDYLAWYQQKPGQAPRLVIHDASNRATGIPARFSGSGSETDFTLTISSLEPEDFAVYYCQQRSNWPPGVTFGQGTRLEIK
# B2: C05 (protein)
# chain 1: QVQLQESGGGLVQPGESLRLSCVGSGSSFGESTLSYYAVSWVRQAPGKGLEWLSIINAGGGDIDYADSVEGRFTISRDNSKETLYLQMTNLRVEDTGVYYCAKHMSMQQVVSAGWERADLVGDAFDVWGQGTLVTVS
# chain 2: DIQLTQSPSSLSASVGDRVTLTCQASQDIRKFLNWYQQKPGKGPKLLIYDASNLQRGVPSRFSGVDLGQISLSSSVACSLKDVGTYYCQQYDGLPFTFGGGTKLEIK
# B3: AG13-3E05 (protein)
# chain 1: VQLQESGPGLVSPSETLSLTCTVSADSINSYYWNWIRQPPGKGLEWIGYIHYSGRSIHNPSLNRRVTISMDTSKNQFSLRLTSVTAADTAMYYCASLKKGETSPFDYWGQGTLVTVSS
# chain 2: DIQMTQSPSTLSASVGDRVSLTCRASQSIGSWLAWYQQKPGKAPKLLIFHASSLESGVPSRFSGSGSGTEFTLTINSLQPDDFATYYCQQYYVYWTFGQGTKVEIK
# B4: AG10-3C01 (protein)
# chain 1: VQLLESGGDLIQPGGSLRLSCAASGFAFGRYAMGWVRQAPGKGLEWVSSISGGFGVFGVTYYADSVKGRFTISRDNSKNTLYLQMNSLRAEDTAIYYCVKDFTPPGTWGWRPGYCDYWGQGTLVTVSS
# chain 2: EIVLTQSPGTLSLSPGERATLSCRASQSVTSNSLAWYQQRPGQAPRLLIYGASSRATGIPDRFSGSGSGTDFTLTITRMDPEDFAVYHCHHYGSSTGTFGQGTKVEIK
# B5: C1-F02 (protein)
# chain 1: VQLQESGPGLVKPSETLSLTCTVSGGSIYSTIHYWGWIRQPPGKGLEWIGSIYYDANTYYNPSLKSRVTMSIDTSKNQFSLRVYSVTAADTAVYYCAKINSGYEYYYGMDVWGQGTTVTVSS
# chain 2: EIVMTQSPGTLSVSPGERATLSCRASQSVRGNVAWYQQKSGQAPRLLIYNTSTRATGIPARFSGSGSGTEFTLTISSLQSEDLAVYYCQQYNNWLYTFGQGTKVEIK
# B6: antibody 3G04 (protein)
# chain 1: EVQLVESGGGLVKPGGSLRLSCAASGFILSDYYMSWIRQAPGKGLEWISYISNSGSSIYNADSVKGRLTISRDSAKNSVFLELNSLRAEDTAVYYCARFPRFGSGSPYQNDAFDIWGQGTMVTVSS
# chain 2: DIQMTQSPSSLSASVGDRVSITCRAGRNINNYLNWYQQPPGKAPKLLIFSAVTLQSGVPSRFSGSGSGTEFSLTINSLQPEDSATYYCQQTYGNPTFGQGTKVEIK
# B7: C1-C02 (protein)
# chain 1: VQLVESGGGLVKPGGSLRISCAASGFSFSNAWMNWVRQAPGRGLEWVGRIKSKTDGGITDYGAPVKGRFSISRDDSKKTLYLQMNSLKTEDTAVYYCATGGGSASGMYYYNGLDVWGQGTTVTVSS
# chain 2: DIVMTQTPLSLSVTPGQPASISCKSSQTLLHGDEKTYLYWYLQKPGQSPQILIYEVSNRFPDVPDRFSGSGSGTDFTLKISRVEAEDVGVYYCMQSIQLPYTFGQGTKVEIK
# B8: 01.e.01 (protein)
# chain 1: QVRLVESGGGVVQPGRSLRLSCAASAFTFSSYALHWVRQAPGKGLEWVTVISSNGRNKYYADSVKGRFTISRDNSKNTLYLQMNSLRVEDTAVYYCARGSSGYTYGYIDPLSNYYGMDVWGQGTTVTVSS
# chain 2: DIVMTPRSVSLSVTPGEPASISCRSSQSLLHSNGYNYLDWYVQKPGQSPQLLIYLSSNRASGVPDRFSGSGSGTDFTLEISRVEAEDVAVYYCMQARQTPPTFGQGTKVEIK
# B9: W85-2B03 (protein)
# chain 1: QVQLVESGGGVVHPGRSLRLSCAASGFDFSDYAMHWVRQAPGKGLEWVALISSDGGNKYSADSMEGRFTISRDNYKNTVYLQMNRLRAEDTAVYYCATDFCSSSSCYLEYWGQGTLVTVSS
# chain 2: QSALTQPASVSGSPGQSITISCTGTSTDVGGYNYVSWYQQHPGKAPKLMIYEVNNRPSGISDRFSASKSGNTASLTISGLQAEDEADYYCSSYTRRSTWVFGGGTKVAVL
# B10: W85-1E04 (protein)
# chain 1: EVQLVESGGGVVQPGGSLRLSCAASGFTFGDYAMHWVRQPPGKGLEWVSLITGDGGSTKYADSVKGRFTISRDNSKNSLSLEMNSLRTEDSALYYCAKDIVSVVAAVDYWGQGARVTVSS
# chain 2: QSALTQPASVSGSPGQSITISCTGTSSDVGCYNYVSWYQQHPGKAPKLMIYDVNNRPSGVSDRFSGSKSGNTASLTISGLQAEDEADFYCSSYTVSSTLVFGSGTKVTVL
# B11: 029-09-2A06 (protein)
# chain 1: EVQLVESGGGLVKPGGSLRLSCSASGFTFSSYTMHWVRQAPGKGLEWLSSISSSSAYIYYADSVKGRFTVSRDNAKKSLYLQMDSLRAEDTAIYFCARDGTSLTVAGPLDYWGQGTLVTVSS
# chain 2: DIQMTQSPSSLSASVGDRVTITCRASQGIRDDLAWYQQKPGKAPKRLIYAASSLQSAFPARFSGSGSGTEFTLTISGLQPEDFATYYCLQYNSYPRTFGQGTKVEIK
# B12: 045-09-1A01 (protein)
# chain 1: QVQLQESGPGLVKPSQTLSLTCTVSGGSIRSGIHYWSWIRQFPGKGLEWIGLIHYSENTHHNPSLKSRVAMSVDTSKNQFSLTLSSVTAADTAVYYCARAAKESLCIGGSCDSNYEHYGLDVWGQGTTVTVSS
# chain 2: DIQMTQSPSSLSASIGDRVTITCRASQSIRNYLNWYQQKPGKAPKLVIYAVSNLQSGVPSRFSGSGSGTDFTLTISSLQPEDLATYYCQQSYSTLPYTFGQGTKVEIK
# B13: antibody 3D03 (protein)
# chain 1: EVQLVQSEAEVKKPGESLKISCKGSGYSFANYWIAWVRQMPGQDLEWMGVIYPGDSDTKYSPSFQGQVTISADKSISTAYLQWNSLKASDTAMYYCARAPPHEGRYYYYYYYMDVWGKGTTVTVSS
# chain 2: AIRMTQSPSSLSASVGDRVTITCRASQDINSFLAWYQQKPGQAPKVLLYGASRLQSGVPSRFSGSGSGADYTLTISSLQPEDFATYYCQQYYHIPRFGQGTKVEIK
# B14: FISW-k.01 (protein)
# chain 1: QVTLRESGPALVKPTQTLTLTCTFSGFSLSTSGMCVSWIRQPPGKALEWLALIDWDDGTFYSTSLKTRLTISKDTSKSQVVLTMTNMGPVDTGTYYCARKLYGDYSDWFDYWGQGILVTVSS
# chain 2: SYELTQPLSVSVALGQTARITCGGNNIGSKNVHWYQQKPGQAPVLVIYRDSNRPSGIPERFSGSNSGNTATLTVSRAQAGDEADYYCQLSDSSIVVFGGGTKLTVL
# B15: 01.f.01 (protein)
# chain 1: EVQLLESGGGVVQPGGSLRLSCGATGFALRDYGIHWVRQAPGQGLEWVAFTRHDGTHKDYIDSVKGRFTISRDNSKNTLYLQMNRLRVEDTAIYYCAKVGYQLLYSGAFHIWGQGTMVSVS
# chain 2: DIVMTQSPVSLPVTPGEPASISCRSSQSLLHTSEYNYLDWYLQKPGQSPQLLIYLGSHRASGVPDRFSGSGSGTDFTLKISRVEAEDVGVYYCMQALQTPQTFGQGTKLEIK
# B16: 01.l.01 (protein)
# chain 1: EVQLVESGGGLVQPGRSLRLSCAASGFTFHDYAMHWVRQVPGKGLEWVSSISWNSYRIGYADSVKGRFTISRDNAKNSLYLQMNSLRAEDTALYYCAKDPQGELIGGRFDPWGQGTLVTVSS
# chain 2: DIQMTQSPSSLSASVGDRVTITCRASQSITTYLNWYQQKPGKAPKLLIHTASNLQSGVPSRFSGSGSGTDFTLTISSLQPEDFATYYCQQSYSTRFTFGPGTKVDIK
# B17: S8V1-146-Ig (protein)
# chain 1: SGAEVKKPGASVKVSCKASGYKFTNYYVHWVRQAPGQGLEWMGIINPREWLGIMNPRAGKTVFAQKFQARVSVTADTSTSTVSMELNSLGYEDTAVYFCARGHDILTDYPHLHWLDSWGQGTLVTVSS
# chain 2: SITPGESASISCSSAQSLLRRDGYNYLDWYLRKAGQPPQLLIYLGSTRASGVPDRFSGSGSGTNFTLKISRAEAEDVGVYYCMQALQMPLTFGGGTQVEI
# B18: AG3-D06 (protein)
# chain 1: QLQLQESGPGLVKPSETLSLTCSVSGGSISETIYYWGWIRQPPGKGLEWIGTIYSDGNTYYNPSLKSRVNMFVDTSDNQFSLKMKSLSAADTAVYYCARLRDGYKYYYGMDVWGQGTTVTVSS
# chain 2: DIQMTQSPSSLSASVGDRVTIPCRASQTISTYLNWYQQRPGKAPKLLIYSASILERGVPSRFSGSGSGTDFTLTISSLQPEDFATYYCQWGSAISVTFGQGTKLEIK
# B19: AG11-3C06 (protein)
# chain 1: VQLVESGGVVVQPGGSLNLSCAASGFTFDDYAMHWVRQGPGKGLEWVSLISWDGGSRYYADSVKGRFTISRDNSKNSLYLEMNSLRTEDTALYYCAKDLGSSWYQLGEKAFDSWGQGTLVTVSS
# chain 2: IVMTQSPSSLSASVGDRVTITCQASHDISHYLNWYQQKPGRAPKLLIYDASNLATGVPSRFSGSGSGTDFTFTISTLQPEDIATYFCQHYDHLPQITFGPGTKVEIK
# Biological target: H1 HA stem construct (mini-HA #4900)
# Assay: mRNA display binding score; higher = more enriched on the antigen
# Details: antigen blocked with: nothing
# Description: (§1)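 A pool of natively paired antibodies, displayed as scFv on mRNA, was selected once on antigen-coated beads and sequenced before and after; two replicates.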
row,Binder,mRNA display binding score
1,B1,inactive: -1.28
2,B2,inactive: 0.776
3,B3,inactive: 0.641
4,B4,inactive: 0.621
5,B5,inactive: 1.95
6,B6,inactive: -0.443
7,B7,inactive: -0.769
8,B8,inactive: -0.191
9,B9,inactive: -0.923
10,B10,inactive: -0.595
11,B11,inactive: -0.115
12,B12,inactive: 2.14
13,B13,inactive: 0.892
14,B14,inactive: -0.0667
15,B15,inactive: 0.0981
16,B16,inactive: 1.21
17,B17,inactive: 6.85
18,B18,inactive: 0.653
19,B19,inactive: -1.28

# Biological target: H3 HA stem construct (H3ssF)
# Assay: as above
# Details: antigen blocked with: nothing
# Description: as §1
row,Binder,mRNA display binding score
1,B1,inactive: 0.294
2,B2,inactive: 1.14
3,B3,inactive: 0.309
4,B4,inactive: 3.86
5,B5,inactive: 3.96
6,B6,inactive: -0.459
7,B7,inactive: 0.00238
8,B8,inactive: 0.12
9,B9,inactive: -0.376
10,B10,inactive: -0.341
11,B11,active: 42.9
12,B12,inactive: 2.99
13,B13,inactive: 2.55
14,B14,inactive: 2.88
15,B15,inactive: 0.301
16,B16,inactive: 2.38
17,B17,inactive: 1.9
18,B18,inactive: 0.291
19,B19,inactive: -0.805
